Data on nine molecules can be found in patent US20220348665A1 (ABL BIO, published 2022).

Assay [1] has as its target alpha-synuclein aggregates (human alpha-synuclein, fibril) (human, UniProt P37840). In words: ELISA on coated alpha-synuclein aggregates, antibody 5-fold dilutions from 400 nM, anti-human Fc-HRP; value is C of the 4-P fit table under the plot. A general note: ELISA stands for enzyme-linked immunosorbent assay.
For assay [2], the target named is T1, human IGF1R extracellular domain, recombinant, His tag at C-terminus (human, UniProt P08069 31-932).
T1 construct: also called human IGF1R ECD; ECD of IGF1R
Put plainly: ELISA on human IGF1R protein.

The target in assay [3] is T2, human IGF1R, endogenous, on the surface of breast cancer cell lines (MCF-7, JIMT-1, BT474) (human, UniProt P08069 31-1367).
T2 construct: also called endogenous IGF1R on the cell surface; MCF-7 cell line
Put plainly: FACS on MCF-7 cells (2ndary Ab only MFI 2.29).

In assay [4] the target is T1, human IGF1R extracellular domain, …. Put plainly: ELISA on ECD of IGF1R, bispecific form.
Assay [5] has as its target T2, human IGF1R, endogenous, on the surface …. In words: FACS on MCF-7 cells, antibody 10 ug/mL (2nd Ab only 2.86, not treated 1.88).

B1: Hu11F11(ver.2)-1564 (bivalent bispecific antibody) (bispecific antibody, human IgG1, kappa)
heavy: EVQLVESGGGLVQPGGSLRLSCATSGFTFSDFYMEWVRQPPGKRLEWIAASRNKANDYTTEYSASVKGRFTVSRDDSKSSLYLQMNSLRAEDTAIYYCARDAHGKPFAYWGQGTTVTVSS[human IgG1 constant region cut from this listing]GGGGSGGGGSGGGGSQSVLTQPPSASGTPGQRVTISCTGSSSNIGSNDVSWYQQLPGTAPKLLIYANSNRPSGVSDRFSGSKSGTSASLAISGLRSEDEADYYCGAWDDSLNGYVFGCGTKLTVLGGGGSGGGGSGGGGSGGGGSEVQLLESGGGLVQPGGSLRLSCAASGFTFSSYDMSWVRQAPGKCLEWVSAISYDNGNTYYADSVKGRFTISRDNSKNTLYLQMNSLRAEDTAVYYCAKGVLTTLMNWFDYWGQGTLVTVSS
light: DIVMTQSPSSLAVSLGERVTMS[about 80 residues cut from this listing][about 120 residues cut from this listing]
notes: also called hu11F11x1564 WT
In general, EC50 refers to the concentration at which the effect is half-maximal. Consider B1, for which the EC50 in assay [1] was determined as 4.27 nM.

B2: hu11F11(ver.2)-F06 monovalent (bispecific antibody, non-deamidated wild type) (bispecific antibody)
heavy 1: EVQLVESGGGLVQPGGSLRLSCATSGFTFSDFYMEWVRQPPGKRLEWIAASRNKANDYTTEYSASVKGRFTVSRDDSKSSLYLQMNSLRAEDTAIYYCARDAHGKPFAYWGQGTTVTVSSASTKGPSVFPLAPSSKSTSGGTAALGCLVKDYFPEPVTVSWNSGALTSGVHTFPAVLQSSGLYSLSSVVTVPSSSLGTQTYICNVNHKPSNTKVDKKV[human IgG1 Fc with changes cut from this listing]GGGGSGGGGSGGGGSQSVLTQPPSASGTPGQRVTISCTGSSSNIGSNDVSWYQQLPGTAPKLLIYANSNRPSGVSDRFSGSKSGTSASLAISGLRSEDEADYYCGTWAGSLNGYVFGCGTKLTVLGGGGSGGGGSGGGGSGGGGSEVQLLESGGGLVQPGGSLRLSCAASGFTFSSYDMSWVRQAPGKCLEWVSAISYDNGNTYYADSVKGRFTISRDNSKNTLYLQMNSLRAEDTAVYYCAKGVLTTLMNWFDYWGQGTLVTVSS
heavy 2: EVQLVESGGGLVQPGGSLRLSCATSGFTFSDFYMEWVRQPPGKRLEWIAASRNKANDYTTEYSASVKGRFTVSRDDSKSSLYLQMNSLRAEDTAIYYCARDAHGKPFAYWGQGTTVTVSS[human IgG1 constant region with changes cut from this listing]
light: DIVMTQSPSSLAVSLGERVTMS[about 80 residues cut from this listing][about 120 residues cut from this listing]
notes: also called hu11f11-F06; F06 WT
Take B2: in assay [2], the EC50 was 0.112 nM. The molecule further displayed an MFI in assay [3] of 9.61.

B3: Hu11F11(ver.2)-F06 (bispecific antibody, valency not printed) (bispecific antibody)
heavy: EVQLVESGGGLVQPGGSLRLSCATSGFTFSDFYMEWVRQPPGKRLEWIAASRNKANDYTTEYSASVKGRFTVSRDDSKSSLYLQMNSLRAEDTAIYYCARDAHGKPFAYWGQGTTVTVSS[human IgG1 constant region cut from this listing]GGGGSGGGGSGGGGSQSVLTQPPSASGTPGQRVTISCTGSSSNIGSNDVSWYQQLPGTAPKLLIYANSNRPSGVSDRFSGSKSGTSASLAISGLRSEDEADYYCGTWAGSLNGYVFGCGTKLTVLGGGGSGGGGSGGGGSGGGGSEVQLLESGGGLVQPGGSLRLSCAASGFTFSSYDMSWVRQAPGKCLEWVSAISYDNGNTYYADSVKGRFTISRDNSKNTLYLQMNSLRAEDTAVYYCAKGVLTTLMNWFDYWGQGTLVTVSS
light: DIVMTQSPSSLAVSLGERVTMS[about 80 residues cut from this listing][about 120 residues cut from this listing]
For B3, the EC50 in assay [4] came out at 0.147 nM.

B4: hu11F11-1564(ver.3) (bispecific antibody)
heavy: EVQLVESGGGLVQPGGSLRLSCATSGFTFSDFYMEWVRQPPGKRLEWIAASRNKANDYTTEYSASVKGRFTISRDTSKSSLYLQMNSLRAEDTAIYYCARDAHGKPFAYWGQGTTVTVSS[human IgG1 constant region cut from this listing]GGGGSGGGGSGGGGSQSVLTQPPSASGTPGQRVTISCTGSSSNIGSNDVSWYQQLPGTAPKLLIYANSNRPSGVSDRFSGSKSGTSASLAISGLRSEDEADYYCGAWDDSLNGYVFGCGTKLTVLGGGGSGGGGSGGGGSGGGGSEVQLLESGGGLVQPGGSLRLSCAASGFTFSSYDMSWVRQAPGKCLEWVSAISYDNGNTYYADSVKGRFTISRDNSKNTLYLQMNSLRAEDTAVYYCAKGVLTTLMNWFDYWGQGTLVTVSS
light: DIVMTQSPSSLAVSLGERVTMS[about 80 residues cut from this listing][about 120 residues cut from this listing]
The molecule B4 returned an EC50 in assay [1] of 0.874 nM.

B5: Hu11F11(ver.2)-VH5 bivalent (bispecific antibody) (bispecific antibody)
heavy: EVQLVESGGGLVQPGGSLRLSCATSGFTFSDFYMEWVRQPPGKRLEWIAASRNKANDYTTEYSASVKGRFTVSRDDSKSSLYLQMNSLRAEDTAIYYCARDAHGKPFAYWGQGTTVTVSS[human IgG1 constant region cut from this listing]GGGGSGGGGSGGGGSQSVLTQPPSASGTPGQRVTISCTGSSSNIGSNDVSWYQQLPGTAPKLLIYANSNRPSGVSDRFSGSKSGTSASLAISGLRSEDEADYYCGAWDDSLNGYVFGCGTKLTVLGGGGSGGGGSGGGGSGGGGSEVQLLESGGGLVQPGGSLRLSCAASGFTFSSYDMSWVRQAPGKCLEWVSAISGDNGSTYYADSVKGRFTISRDNSKNTLYLQMNSLRAEDTAVYYCAKGVLTTLMNWFDSWGQGTLVTVSS
light: DIVMTQSPSSLAVSLGERVTMS[about 80 residues cut from this listing][about 120 residues cut from this listing]
notes: also called hu11f11-VH5; hu11F11x1564_VH5
With B5, the values for the concentration for a half-maximal effect (EC50) in assay [2] and in assay [4] were 0.125 nM and 0.366 nM, respectively. The molecule further displayed an MFI in assay [3] of 6.44. Further, the “GeoMean, Internalization at 37° C.” value in assay [5] is 6.1.

B6: Hu11F11(ver.2)-VH16 bivalent (bispecific antibody) (bispecific antibody)
heavy: EVQLVESGGGLVQPGGSLRLSCATSGFTFSDFYMEWVRQPPGKRLEWIAASRNKANDYTTEYSASVKGRFTVSRDDSKSSLYLQMNSLRAEDTAIYYCARDAHGKPFAYWGQGTTVTVSS[human IgG1 constant region cut from this listing]GGGGSGGGGSGGGGSQSVLTQPPSASGTPGQRVTISCTGSSSNIGSNDVSWYQQLPGTAPKLLIYANSNRPSGVSDRFSGSKSGTSASLAISGLRSEDEADYYCGAWDDSLNGYVFGCGTKLTVLGGGGSGGGGSGGGGSGGGGSEVQLLESGGGLVQPGGSLRLSCAASGFTFSSYDMSWVRQAPGKCLEWVSAISGSNGNTYYADSVKGRFTISRDNSKNTLYLQMNSLRAEDTAVYYCAKGVLTTLMNWFDYWGQGTLVTVSS
light: DIVMTQSPSSLAVSLGERVTMS[about 80 residues cut from this listing][about 120 residues cut from this listing]
notes: also called hu11F11-VH16; hu11F11x1564_VH16
As to B6, the concentration for a half-maximal effect (EC50) came out at 0.143 nM in assay [2] and 0.236 nM in assay [4]. Further, the MFI in assay [3] turned out to be 6.13. Moreover, the “GeoMean, Internalization at 37° C.” value in assay [5] is 5.83.

B7: Hu11F11(ver.2)-VH9 (bivalent bispecific antibody) (bispecific antibody)
heavy: EVQLVESGGGLVQPGGSLRLSCATSGFTFSDFYMEWVRQPPGKRLEWIAASRNKANDYTTEYSASVKGRFTVSRDDSKSSLYLQMNSLRAEDTAIYYCARDAHGKPFAYWGQGTTVTVSS[human IgG1 constant region cut from this listing]GGGGSGGGGSGGGGSQSVLTQPPSASGTPGQRVTISCTGSSSNIGSNDVSWYQQLPGTAPKLLIYANSNRPSGVSDRFSGSKSGTSASLAISGLRSEDEADYYCGAWDDSLNGYVFGCGTKLTVLGGGGSGGGGSGGGGSGGGGSEVQLLESGGGLVQPGGSLRLSCAASGFTFSSYDMSWVRQAPGKCLEWVSAISGDNGNTYYADSVKGRFTISRDNSKNTLYLQMNSLRAEDTAVYYCAKGVLTTLMNWFDYWGQGTLVTVSS
light: DIVMTQSPSSLAVSLGERVTMS[about 80 residues cut from this listing][about 120 residues cut from this listing]
notes: also called hu11F11x1564_VH9
Consider B7, for which the EC50 in assay [4] was 6.06 nM. For the same molecule, the “GeoMean, Internalization at 37° C.” value in assay [5] came to 5.01.

B8: Hu11F11(ver.2)-VH35 (bivalent bispecific antibody) (bispecific antibody)
heavy: EVQLVESGGGLVQPGGSLRLSCATSGFTFSDFYMEWVRQPPGKRLEWIAASRNKANDYTTEYSASVKGRFTVSRDDSKSSLYLQMNSLRAEDTAIYYCARDAHGKPFAYWGQGTTVTVSS[human IgG1 constant region cut from this listing]GGGGSGGGGSGGGGSQSVLTQPPSASGTPGQRVTISCTGSSSNIGSNDVSWYQQLPGTAPKLLIYANSNRPSGVSDRFSGSKSGTSASLAISGLRSEDEADYYCGAWDDSLNGYVFGCGTKLTVLGGGGSGGGGSGGGGSGGGGSEVQLLESGGGLVQPGGSLRLSCAASGFTFSSYDMSWVRQAPGKCLEWVSAISYDNGSTYYADSVKGRFTISRDNSKNTLYLQMNSLRAEDTAVYYCAKGVLTTLMNWFDSWGQGTLVTVSS
light: DIVMTQSPSSLAVSLGERVTMS[about 80 residues cut from this listing][about 120 residues cut from this listing]
notes: also called hu11F11x1564_VH35
With B8, in assay [4], the EC50 came out at 0.167 nM. For the same molecule, the “GeoMean, Internalization at 37° C.” value in assay [5] was 7.28.

B9: Hu11F11(ver.2)-C04 (bispecific antibody) (bispecific antibody)
heavy: EVQLVESGGGLVQPGGSLRLSCATSGFTFSDFYMEWVRQPPGKRLEWIAASRNKANDYTTEYSASVKGRFTVSRDDSKSSLYLQMNSLRAEDTAIYYCARDAHGKPFAYWGQGTTVTVSS[human IgG1 constant region cut from this listing]GGGGSGGGGSGGGGSQSVLTQPPSASGTPGQRVTISCTGSSSNIGSNDVSWYQQLPGTAPKLLIYANSNRPSGVSDRFSGSKSGTSASLAISGLRSEDEADYYCGAWEQWLNGYVFGCGTKLTVLGGGGSGGGGSGGGGSGGGGSEVQLLESGGGLVQPGGSLRLSCAASGFTFSSYDMSWVRQAPGKCLEWVSAISYDNGNTYYADSVKGRFTISRDNSKNTLYLQMNSLRAEDTAVYYCAKGVLTTLMNWFDYWGQGTLVTVSS
light: DIVMTQSPSSLAVSLGERVTMS[about 80 residues cut from this listing][about 120 residues cut from this listing]
notes: also called Hu11F11(ver.2)-004
Regarding B9, the EC50 in assay [4] was 0.15 nM.
